Reference: PubChem BioAssay (NCI)
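Each compound was tested at five concentrations against cells in 96-well plates for 48 hours. TGI: total growth inhibition.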 Certain results were filed several times, with different values. The list is limited to them. An entry can have further records. For some assays here: Records of one sample usually come from different ranges of test concentrations, which the source does not state; some values may only mark the edge of a range. For some assays here: The records of an entry are repeats (runs, samples, wells, individuals or studies). A tag in brackets gives the origin of a value. A, B and so on number the origins entry by entry.

Columns and labels:
Experiment in all cases: inhibition of tumour cell growth, NCI panel, 48 h
[1] = tested on: OVCAR-5 ovarian
[2] = tested on: SN12C renal
[3] = tested on: HCT-116 colon
[4] = tested on: HL-60(TB) leukemia
[5] = tested on: RPMI-8226 leukemia
[6] = tested on: SF-295 CNS
[7] = tested on: K-562 leukemia
[8] = tested on: NCI/ADR-RES ovarian
[9] = tested on: HOP-92 NSCLC
[10] = tested on: LOX IMVI melanoma
[11] = tested on: M14 melanoma
[12] = tested on: SNB-75 CNS
[13] = tested on: HT29 colon
[14] = tested on: SR leukemia
[15] = tested on: SW-620 colon
[16] = tested on: OVCAR-8 ovarian
[17] = tested on: 786-0 renal
[18] = tested on: CAKI-1 renal
[19] = tested on: IGROV1 ovarian
[20] = tested on: SK-MEL-2 melanoma

Compound	TGI [1]	TGI [2]	TGI [3]	TGI [4]	TGI [5]	TGI [6]	TGI [7]	TGI [8]	TGI [9]	TGI [10]	TGI [11]	TGI [12]	TGI [13]	TGI [14]	TGI [15]	TGI [16]	TGI [17]	TGI [18]	TGI [19]	TGI [20]
CNC(=O)c1cc(Oc2ccc(NC(=O)Nc3cc(C(C)(C)C)nn3-c3ccc4ncccc4c3)c(F)c2)ccn1	8.95 µM [sample A, mean of 2 tests] and > 100 µM [sample B, 1 test]																			
CC1OC(O[C@@H]2C=C3CC[C@@H]4[C@H](CC[C@]5(C)[C@@H](c6ccc(=O)oc6)CC[C@]45O)[C@@]3(C)CC2)C(O)C(OC2OC(CO)C(O)C(O)C2O)C1O (stereo partly drawn)		0.482 nM and 539 nM	1.2 nM and 28.2 nM	0.1 nM and 539 nM	1.8 nM and 25.6 nM	1.73 nM and 26.4 nM	0.416 nM and 57.1 nM	1.48 nM and 50 nM	1.93 nM and 30.3 nM	2.4 nM and 169 nM										
COc1ccc2c(c1)nnc1c3cccnc3[nH]c21			928 nM and > 100 µM	635 nM and > 100 µM			1.84 µM and > 100 µM				5.33 µM and > 100 µM	8.19 µM and > 100 µM	2.73 µM and > 100 µM	217 nM and > 100 µM	1.67 µM and > 100 µM	50 µM and 2.45 µM	3.28 µM and > 100 µM	339 nM and > 100 µM	3.54 µM and > 100 µM	8.18 µM and > 100 µM
